# Structures can show the parent of a compound that is named as a salt. The list shows a part of the results. Repeats are few or missing, and single values can be far off.
# System: SJNB8
# Test: area under viability curve (10 nM-1 µM), viability relative to solvent or trametinib-only control (AUC (arbitrary, % viability x concentration range)); higher = less growth inhibition (more viable cells)
# Settings: 72 h compound exposure (96 h after seeding) h; trametinib co-treatment 0 µM
# Procedure: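 Four neuroblastoma cell lines (KCNR, SKNBE, SJNB8, SKNAS) were seeded in 384-well plates. At 24 h, 1 µM trametinib or DMSO was added, followed by library compounds at 10 nM, 100 nM and 1 µM. Viability was read by MTT at 96 h and normalised to solvent-treated cells (DMSO arm) or to trametinib-only cells (trametinib arm). The area under the 3-point viability curve was computed in GraphPad Prism; units are as given (approx. 100000 = no effect).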
# 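Further: KCNR is a neuroblastoma cell line carrying an ALK mutation, in this DMSO arm without trametinib, viability was normalised to solvent-treated cells.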
row,SMILES,area under viability curve
1,CC1(C)CNc2cc(NC(=O)c3cccnc3NCc3ccncc3)ccc21 [Motesanib],99000
2,CC(C)[C@H](O)C(=O)N[C@@H](C)C(=O)N[C@@H]1C(=O)N(C)CCc2ccccc21 [Semagacestat],100000
3,CCOc1cc2ncc(C#N)c(Nc3ccc(OCc4ccccn4)c(Cl)c3)c2cc1NC(=O)/C=C/CN(C)C [Neratinib],59700
4,Cc1cccn2c(=O)c(C=C(C#N)c3nc4ccccc4s3)c(Oc3ccc(F)cc3)nc12,90500
5,N.N.O=C([O-])C[O-].[Pt+2] [Nedaplatin],94800
6,Cc1cc(Nc2cc(N3CCN(C)CC3)nc(Sc3ccc(NC(=O)C4CC4)cc3)n2)n[nH]1 [Tozasertib],55900
7,CC(=O)Nc1ccc(C(=O)Nc2ccccc2N)cc1 [Tacedinaline],90800
8,C=C(C)[C@@H](CC=C(C)C)C[C@@]12C[C@@H](CC=C(C)C)C(C)(C)[C@@](CC=C(C)C)(C(=O)C(C(=O)c3ccc(O)c(O)c3)=C1O)C2=O [Garcinol],77000
9,CNC(=O)c1ccc(N2C(=S)N(c3ccc(C#N)c(C(F)(F)F)c3)C(=O)C2(C)C)cc1F [Enzalutamide],95800
10,CN1CC[C@H](c2c(O)cc(O)c3c(=O)cc(-c4ccccc4Cl)oc23)[C@H](O)C1 [Flavopiridol],38300
11,CC(C)C1O[C@H](CN)[C@@H](CN)O1.O=C([O-])CC(=O)[O-].[Pt+2] [Eptaplatin],83700
12,Nc1nc(OCc2ccccc2)c2nc[nH]c2n1 [O6-Benzylguanine],107000
13,CC(=O)O[C@H]1C(=O)[C@@]2(C)[C@H]([C@H](OC(=O)c3ccccc3)[C@]3(O)C[C@H](OC(=O)[C@H](O)[C@@H](NC(=O)c4ccccc4)c4ccccc4)C(C)=C1C3(C)C)[C@]1(OC(C)=O)CO[C@@H]1C[C@@H]2O [7-epi-Taxol],37000
14,C[C@]1(c2nc3c(C(N)=O)cccc3[nH]2)CCCN1 [Veliparib],97900
15,COc1cc2c(Oc3ccc4[nH]c(C)cc4c3F)ncnc2cc1OCCCN1CCCC1 [Cediranib],65100
16,O=Nc1ccc(O)c2ncccc12,96100
17,Cc1ccc(NC(=O)c2ccc(CN3CCN(C)CC3)cc2)cc1Nc1nccc(-c2cccnc2)n1 [Imatinib mesylate],93900
18,CCc1c2c(nc3ccc(O)cc13)-c1cc3c(c(=O)n1C2)COC(=O)[C@]3(O)CC [7-Ethyl-10-hydroxycamptothecin],56200
19,O=C1c2c(O)ccc(O)c2C(=O)c2c(NCCNCCO)ccc(NCCNCCO)c21 [Mitoxanthrone HCl],58600
20,CC(C)(C)c1nc(-c2cccc(NS(=O)(=O)c3c(F)cccc3F)c2F)c(-c2ccnc(N)n2)s1 [Dabrafenib],111000
21,CC(=O)[O-].CC(=O)[O-].N.NC1CCCCC1.[Cl-].[Cl-].[Pt+4] [Satraplatin],85300
22,COc1cc2c(cc1OC)CN(CCc1ccc(NC(=O)c3cc(OC)c(OC)cc3NC(=O)c3cnc4ccccc4c3)cc1)CC2 [Tariquidar],81700
23,CC1(C)CCC(CN2CCN(c3ccc(C(=O)NS(=O)(=O)c4ccc(NCC5CCOCC5)c([N+](=O)[O-])c4)c(Oc4cnc5[nH]ccc5c4)c3)CC2)=C(c2ccc(Cl)cc2)C1 [Venetoclax],78500
24,CN(C)C(=O)c1cc2cnc(Nc3ccc(N4CCNCC4)cn3)nc2n1C1CCCC1 [Ribociclib],65600
25,O=C(CCCN1C(=O)c2cccc3cccc(c23)C1=O)NO [Nullscript],80200
26,C=C1C(=O)O[C@@H](CCC)[C@@H]1C(=O)O [Butyrolactone 3],93800
27,O=c1[nH]c(=O)n(C2CCCO2)cc1F (stereo not given) [Tegafur],86600
28,C#Cc1cccc(Nc2ncnc3cc(OCCOC)c(OCCOC)cc23)c1 [Erlotinib mesylate],83600
29,CC(C)C[C@H](NC(=O)[C@@H](Cc1c[nH]c2ccccc12)NC(=O)[C@H](Cc1ccc(O)cc1)NC(=O)[C@H](CO)NC(=O)[C@H](Cc1c[nH]c2ccccc12)NC(=O)[C@H](Cc1cnc[nH]1)NC(=O)[C@@H]1CCC(=O)N1)C(=O)N[C@@H](CCCN=C(N)N)C(=O)N1CCC[C@H]1C(=O)NCC(N)=O [Triptorelin acetate],65400
30,CC[C@@]1(O)C(=O)OCc2c1cc1n(c2=O)Cc2cc3cc(O)ccc3nc2-1 [10-Hydroxycamptothecin],59800

# Reference: the supplement of paper PMC9990464
